Source: article PMC11079024, “Identification of a family of species-selective complex I inhibitors as potential anthelmintics” (Nature Communications, 2024)
Values joined by “and” are separate entries in the source; they are usually repeats but may differ in a detail not shown here. Equal values may be shown once. Read-outs that look alike come from different tables or passages of the source.

What was measured:
[1] = system: L1 wild-type C. elegans (N2); assay: microbe, parasite or virus in culture; conditions: Caenorhabditis elegans; for viability at 0.2 µM: read-out: C. elegans L1 development and viability (6-day growth), dose 0.2 µM; for viability at 0.4 µM: read-out: C. elegans L1 development and viability (6-day growth), dose 0.4 µM; for viability at 0.8 µM: read-out: C. elegans L1 development and viability (6-day growth), dose 0.8 µM; for viability at 3.1 µM: read-out: C. elegans L1 development and viability (6-day growth), dose 3.1 µM; for viability at 6.3 µM: read-out: C. elegans L1 development and viability (6-day growth), dose 6.3 µM; for viability at 12.5 µM: read-out: C. elegans L1 development and viability (6-day growth), dose 12.5 µM; for viability at 25 µM: read-out: C. elegans L1 development and viability (6-day growth), dose 25 µM; for viability at 50 µM: read-out: C. elegans L1 development and viability (6-day growth), dose 50 µM; for viability at 100 µM: read-out: C. elegans L1 development and viability (6-day growth), dose 100 µM; for viability at 200 µM: read-out: C. elegans L1 development and viability (6-day growth), dose 200 µM
[2] = system: L1 wild-type C. elegans (N2); conditions: for viability score (0-1) relative to DMSO controls: C. elegans (N2), 1 = like DMSO control, 0 = death
[3] = system: L1 wild-type C. elegans; conditions: for KCN survival assay value relative to DMSO control: 15 hour drug + KCN treatment; for KCN survival assay value relative to DMSO control / C. elegans L1 relative motility, 3-hour post 200 µM KCN dilution: Mean of replicates
[4] = in vitro; conditions: human
[5] = 144 h, read-out: C. elegans (Wild type) Development & Viability Assay LC50
[6] = 144 h, individual replicate (Rep)
[7] = read-out: C. elegans (Wild type) Development & Viability Assay LC50
[8] = read-out: C. elegans Wt viability log10 LC50 (converted)
[9] = N2 (wild type), caenorhabditis elegans
[10] = dose 0.4 µM, individual replicate (Rep)
[11] = dose 3.1 µM, individual replicate (Rep)
[12] = dose 100 µM, individual replicate (Rep)

Fc1ccc(C(c2ccc(F)cc2)N2CCN(C/C=C/c3ccccc3)CC2)cc1 [Flunarizine, reference compound]
LC50 [1, 5]: > 200 µM | viability at 0.2 µM ([1]; 144 h, Mean of replicates): 93.8% | viability at 0.2 µM [1, 6]: 96.4% | viability at 0.4 µM [1, 6]: 100% | viability at 0.8 µM ([1]; 144 h, Mean of replicates): 97.7% | viability at 0.8 µM [1, 6]: 100% | viability at 3.1 µM ([1]; 144 h, Mean of replicates): 94.9% | viability at 3.1 µM [1, 6]: 100% | viability at 6.3 µM ([1]; 144 h, Mean of replicates): 97.5% | viability at 6.3 µM [1, 6]: 100% | viability at 12.5 µM ([1]; 144 h, Mean of replicates): 95.7% | viability at 12.5 µM [1, 6]: 100% | viability at 25 µM [1, 6]: 100% | viability at 50 µM ([1]; 144 h, Mean of replicates): 98.3% | viability at 50 µM [1, 6]: 100% | viability at 100 µM ([1]; 144 h, Mean of replicates): 93% | viability at 200 µM ([1]; 144 h, Mean of replicates): 100% | viability at 200 µM [1, 6]: 100% | C. elegans L1 development and viability (6-day growth) ([2]; N2, Caenorhabditis elegans, 6 days, 0.4 µM): 0.943 | C. elegans L1 development and viability (6-day growth) ([2]; N2, Caenorhabditis elegans, 6 days, 0.8 µM): 0.931 | C. elegans L1 development and viability (6-day growth) ([2]; N2, Caenorhabditis elegans, 6 days, 3.1 µM): 0.847 | C. elegans L1 development and viability (6-day growth) ([2]; N2, Caenorhabditis elegans, 6 days, 12.5 µM): 0.870 | C. elegans L1 development and viability (6-day growth) ([2]; N2, Caenorhabditis elegans, 6 days, 25 µM): 0.886 | C. elegans L1 development and viability (6-day growth) ([2]; N2, Caenorhabditis elegans, 6 days, 50 µM): 0.949

CC(C)Cc1ccc(C(C)c2nc3ccccc3n2C)cc1 (centres unmarked) [NPD8790]
LC50 [1, 5]: > 100 µM | LC50 [1, 7]: > 1000 µM | LC50 ([1]; read-out: C. elegans Wt viability LC50): > 500 µM | LC50 [1, 8]: > 500 µM | Screen "Hit" ([3]; 50 μM compound, […], hit = relative motility below 0.25 3 hours after removal of KCN): Y (hits were identified as compounds that reduced relative motility below 0.25 (75% reduction)) | CC50 at 2 days ([4]; HEK293 Cell Viability Assay LC50, 2 days exposure): > 50 µM | CC50 at 2 days ([4]; HEK293 Cell Viability Assay LC50, HEK293 cells, estimated from fitted dose-response curves): 90.8 µM

C=C(C)[C@H]1Cc2c(ccc3c2O[C@@H]2COc4cc(OC)c(OC)cc4[C@@H]2C3=O)O1 [Rotenone, reference compound]
LC50 [1, 5]: 3.1 µM | viability at 0.2 µM ([1]; 144 h, Mean of replicates): 92.7% | viability at 0.4 µM ([1]; 144 h, Mean of replicates): 91.4% | viability at 0.8 µM ([1]; 144 h, Mean of replicates): 93.2% | viability at 3.1 µM ([1]; 144 h, Mean of replicates): 60% | viability at 6.3 µM ([1]; 144 h, Mean of replicates): 3.5% | viability at 12.5 µM ([1]; 144 h, Mean of replicates): 1.7% | viability at 12.5 µM [1, 6]: 2.2% | viability at 25 µM ([1]; 144 h, Mean of replicates): 2% | viability at 50 µM ([1]; 144 h, Mean of replicates): 3.3% | viability at 100 µM ([1]; 144 h, Mean of replicates): 3.5% | LC50 [2, 9]: 3.39 µM | C. elegans L1 development and viability (6-day growth) ([2]; dose 0.2 µM, individual replicate (Rep)): 0.782 | C. elegans L1 development and viability (6-day growth) [2, 10]: 0.741 | C. elegans L1 development and viability (6-day growth) ([2]; dose 0.8 µM, individual replicate (Rep)): 0.796 | C. elegans L1 development and viability (6-day growth) [2, 11]: 0.608 and 0.451 and 0.742 | C. elegans L1 development and viability (6-day growth) ([2]; dose 12.5 µM, individual replicate (Rep)): 0.013 | C. elegans L1 development and viability (6-day growth) ([2]; dose 25 µM, individual replicate (Rep)): 0.015 and 0.014 and 0.031 | C. elegans L1 development and viability (6-day growth) ([2]; dose 50 µM, individual replicate (Rep)): 0.025 and 0.023 and 0.051 | C. elegans L1 development and viability (6-day growth) [2, 12]: 0.024 and 0.058

Cc1nc2ccccc2n1Cc1ccc(Cl)cc1 [STK697993]
LC50 [1, 5]: 31.5 µM | LC50 [1, 7]: 46.1 µM | LC50 [1, 8]: 46.1 µM | viability score (0-1) relative to DMSO controls ([2]; 2 µM): 0.976 | viability score (0-1) relative to DMSO controls ([2]; 3.9 µM): 0.983 | viability score (0-1) relative to DMSO controls ([2]; 15.6 µM): 0.900 | viability score (0-1) relative to DMSO controls ([2]; 31.3 µM): 0.109 | viability score (0-1) relative to DMSO controls ([2]; 62.5 µM): 0.004 | viability score (0-1) relative to DMSO controls ([2]; 125 µM): 0.0019 | viability score (0-1) relative to DMSO controls ([2]; 250 µM): 0.036

Cc1cc(O)c2c(c1)O[C@@]1(C)CC[C@H]3C(C)(C)CCC[C@]34CO[C@@H]2[C@H]41 [Siccanin]
LC50 [1, 5]: 15.2 µM | viability at 0.4 µM ([1]; 144 h, Mean of replicates): 97.8% | viability at 0.4 µM [1, 6]: 100% | viability at 0.8 µM ([1]; 144 h, Mean of replicates): 100% | viability at 0.8 µM [1, 6]: 100% | viability at 3.1 µM ([1]; 144 h, Mean of replicates): 98.1% | viability at 3.1 µM [1, 6]: 100% | viability at 6.3 µM ([1]; 144 h, Mean of replicates): 97.5% | viability at 6.3 µM [1, 6]: 100% | viability at 12.5 µM ([1]; 144 h, Mean of replicates): 69.5% | viability at 25 µM ([1]; 144 h, Mean of replicates): 9.7% | viability at 50 µM ([1]; 144 h, Mean of replicates): 2% | viability at 100 µM ([1]; 144 h, Mean of replicates): 1.3% | viability at 200 µM ([1]; 144 h, Mean of replicates): 0.12% | C. elegans L1 development and viability (6-day growth) [2, 10]: 0.911 | C. elegans L1 development and viability (6-day growth) [2, 11]: 0.923 | C. elegans L1 development and viability (6-day growth) ([2]; dose 6.3 µM, individual replicate (Rep)): 0.900 | C. elegans L1 development and viability (6-day growth) [2, 12]: 0.012 and 0.0064 and 0.019 | KCN survival assay value relative to DMSO control ([3]; dose 0.1 µM): 0.898 | KCN survival assay value relative to DMSO control ([3]; dose 0.2 µM): 0.977 | KCN survival assay value relative to DMSO control ([3]; dose 0.4 µM): 0.943 | KCN survival assay value relative to DMSO control ([3]; dose 0.8 µM): 0.815 | KCN survival assay value relative to DMSO control ([3]; dose 3.1 µM): 0.695 | KCN survival assay value relative to DMSO control ([3]; dose 6.3 µM): 0.485 | KCN survival assay value relative to DMSO control ([3]; dose 12.5 µM): 0.200 | KCN survival assay value relative to DMSO control ([3]; dose 25 µM): 0.036 | KCN survival assay value relative to DMSO control ([3]; dose 50 µM): 0.015 | KCN survival assay value relative to DMSO control ([3]; dose 100 µM): 0.017 | LC50 [3, 9]: 6.34 µM | C. elegans L1 relative motility, 3-hour post 200 µM KCN dilution ([3]; dose 0.1 µM): 0.898 | C. elegans L1 relative motility, 3-hour post 200 µM KCN dilution ([3]; dose 0.2 µM): 0.977 | C. elegans L1 relative motility, 3-hour post 200 µM KCN dilution ([3]; dose 0.4 µM): 0.943 | C. elegans L1 relative motility, 3-hour post 200 µM KCN dilution ([3]; dose 0.8 µM): 0.815 | C. elegans L1 relative motility, 3-hour post 200 µM KCN dilution ([3]; dose 3.1 µM): 0.695 | C. elegans L1 relative motility, 3-hour post 200 µM KCN dilution ([3]; dose 6.3 µM): 0.485 | C. elegans L1 relative motility, 3-hour post 200 µM KCN dilution ([3]; dose 12.5 µM): 0.200 | C. elegans L1 relative motility, 3-hour post 200 µM KCN dilution ([3]; dose 25 µM): 0.036 | C. elegans L1 relative motility, 3-hour post 200 µM KCN dilution ([3]; dose 50 µM): 0.015 | C. elegans L1 relative motility, 3-hour post 200 µM KCN dilution ([3]; dose 100 µM): 0.017 | C. elegans L1 relative motility, 3-hour post 200 µM KCN dilution ([3]; dose […]): 0.895
